Results published in the supplement of paper PMC9174493.
This is one part of the list. Single values of this set are uncertain. Values with irradiation are relative to irradiated vehicle.

How the values were obtained:
A549-Dual [1] = test: NF-kB reporter (SEAP) activity, viability-corrected, relative to vehicle (fold change vs vehicle); higher = more activation of STING-IRF / NF-kB immune response reporter
A549-Dual [2] = test: ISRE reporter (Lucia luciferase) activity, viability-corrected, relative to vehicle (fold change vs vehicle); higher = more activation of STING-IRF / NF-kB immune response reporter
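Throughout, for NF-kB reporter (SEAP) activity, viability-corrected, relative to vehicle: viability correction based on the alamar blue assay, with concentrations leaving 10% survival or less dropped.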

Cn1c(CCCC(=O)O)nc2cc(N(CCCl)CCCl)ccc21 [Bendamustine]
NF-kB reporter (A549-Dual [1]; 0.1 µM, irradiation: 8 Gy/4 fr): 0.862 | NF-kB reporter (A549-Dual [1]; 0.1 µM, irradiation: none): 0.946 | NF-kB reporter (A549-Dual [1]; 0.3 µM, irradiation: 8 Gy/4 fr): 0.881 | NF-kB reporter (A549-Dual [1]; 0.3 µM, irradiation: none): 0.897 | NF-kB reporter (A549-Dual [1]; 1 µM, irradiation: 8 Gy/4 fr): 0.944 | NF-kB reporter (A549-Dual [1]; 1 µM, irradiation: none): 0.887 | NF-kB reporter (A549-Dual [1]; 3 µM, irradiation: 8 Gy/4 fr): 0.923 | NF-kB reporter (A549-Dual [1]; 3 µM, irradiation: none): 0.805 | NF-kB reporter (A549-Dual [1]; 10 µM, irradiation: 8 Gy/4 fr): 0.917 | NF-kB reporter (A549-Dual [1]; 10 µM, irradiation: none): 0.836 | ISRE reporter (A549-Dual [2]; 0.1 µM, irradiation: 8 Gy/4 fr): 0.915 | ISRE reporter (A549-Dual [2]; 0.1 µM, irradiation: none): 0.862 | ISRE reporter (A549-Dual [2]; 0.3 µM, irradiation: 8 Gy/4 fr): 0.873 | ISRE reporter (A549-Dual [2]; 0.3 µM, irradiation: none): 0.839 | ISRE reporter (A549-Dual [2]; 1 µM, irradiation: 8 Gy/4 fr): 0.952 | ISRE reporter (A549-Dual [2]; 1 µM, irradiation: none): 0.889 | ISRE reporter (A549-Dual [2]; 3 µM, irradiation: 8 Gy/4 fr): 0.962 | ISRE reporter (A549-Dual [2]; 3 µM, irradiation: none): 0.636 | ISRE reporter (A549-Dual [2]; 10 µM, irradiation: 8 Gy/4 fr): 0.96 | ISRE reporter (A549-Dual [2]; 10 µM, irradiation: none): 0.822

Cc1cccc(C(C)c2c[nH]cn2)c1C.Cl (configuration not stated) [Medetomidine HCl]
NF-kB reporter (A549-Dual [1]; 0.1 µM, irradiation: 8 Gy/4 fr): 0.807 | NF-kB reporter (A549-Dual [1]; 0.1 µM, irradiation: none): 1.09 | NF-kB reporter (A549-Dual [1]; 0.3 µM, irradiation: 8 Gy/4 fr): 0.799 | NF-kB reporter (A549-Dual [1]; 0.3 µM, irradiation: none): 1.06 | NF-kB reporter (A549-Dual [1]; 1 µM, irradiation: 8 Gy/4 fr): 0.93 | NF-kB reporter (A549-Dual [1]; 1 µM, irradiation: none): 0.845 | NF-kB reporter (A549-Dual [1]; 3 µM, irradiation: 8 Gy/4 fr): 0.952 | NF-kB reporter (A549-Dual [1]; 3 µM, irradiation: none): 0.942 | NF-kB reporter (A549-Dual [1]; 10 µM, irradiation: 8 Gy/4 fr): 0.93 | NF-kB reporter (A549-Dual [1]; 10 µM, irradiation: none): 0.979 | ISRE reporter (A549-Dual [2]; 0.1 µM, irradiation: 8 Gy/4 fr): 0.874 | ISRE reporter (A549-Dual [2]; 0.1 µM, irradiation: none): 0.798 | ISRE reporter (A549-Dual [2]; 0.3 µM, irradiation: 8 Gy/4 fr): 0.827 | ISRE reporter (A549-Dual [2]; 0.3 µM, irradiation: none): 0.818 | ISRE reporter (A549-Dual [2]; 1 µM, irradiation: 8 Gy/4 fr): 0.641 | ISRE reporter (A549-Dual [2]; 1 µM, irradiation: none): 0.783 | ISRE reporter (A549-Dual [2]; 3 µM, irradiation: 8 Gy/4 fr): 0.811 | ISRE reporter (A549-Dual [2]; 3 µM, irradiation: none): 0.993 | ISRE reporter (A549-Dual [2]; 10 µM, irradiation: 8 Gy/4 fr): 0.775 | ISRE reporter (A549-Dual [2]; 10 µM, irradiation: none): 1

CCC(C)C(C(CC(=O)N1CCCC1C(OC)C(C)C(=O)NC(C)C(O)c1ccccc1)OC)N(C)C(=O)C(NC(=O)C(NC)C(C)C)C(C)C (configuration not stated) [Monomethyl auristatin E (MMAE)]
NF-kB reporter (A549-Dual [1]; 10 µM, irradiation: 8 Gy/4 fr): 0.929 | NF-kB reporter (A549-Dual [1]; 10 µM, irradiation: none): 1.65 | ISRE reporter (A549-Dual [2]; 10 µM, irradiation: 8 Gy/4 fr): 0.0733 | ISRE reporter (A549-Dual [2]; 10 µM, irradiation: none): 0.425

Br.CN1C2CC(OC(=O)C(CO)c3ccccc3)CC1C1OC12 (configuration not stated) [Scopolamine HBr]
NF-kB reporter (A549-Dual [1]; 10 µM, irradiation: 8 Gy/4 fr): 0.749 | NF-kB reporter (A549-Dual [1]; 10 µM, irradiation: none): 1.19 | ISRE reporter (A549-Dual [2]; 10 µM, irradiation: 8 Gy/4 fr): 0.984 | ISRE reporter (A549-Dual [2]; 10 µM, irradiation: none): 0.974

CN1C2CC(OC(=O)C(CO)c3ccccc3)CC1C(O)C2 (configuration not stated) [Raceanisodamine]
NF-kB reporter (A549-Dual [1]; 10 µM, irradiation: 8 Gy/4 fr): 0.984 | NF-kB reporter (A549-Dual [1]; 10 µM, irradiation: none): 1.37 | ISRE reporter (A549-Dual [2]; 10 µM, irradiation: 8 Gy/4 fr): 0.877 | ISRE reporter (A549-Dual [2]; 10 µM, irradiation: none): 0.981

Oc1cc(Cl)ccc1Oc1ccc(Cl)cc1Cl [Triclosan]
NF-kB reporter (A549-Dual [1]; 10 µM, irradiation: 8 Gy/4 fr): 0.264 | NF-kB reporter (A549-Dual [1]; 10 µM, irradiation: none): 0.509 | ISRE reporter (A549-Dual [2]; 10 µM, irradiation: 8 Gy/4 fr): 0.092 | ISRE reporter (A549-Dual [2]; 10 µM, irradiation: none): 0.302

CCCN1CC(CSC)CC2c3cccc4[nH]cc(c34)CC21.CS(=O)(=O)O (configuration not stated) [Pergolide Mesylate]
NF-kB reporter (A549-Dual [1]; 10 µM, irradiation: 8 Gy/4 fr): 0.606 | NF-kB reporter (A549-Dual [1]; 10 µM, irradiation: none): 0.772 | ISRE reporter (A549-Dual [2]; 10 µM, irradiation: 8 Gy/4 fr): 0.78 | ISRE reporter (A549-Dual [2]; 10 µM, irradiation: none): 1.21

C[N+](C)(C)CCCCCCCCCC[N+](C)(C)C.[Br-].[Br-] [Decamethonium Bromide]
NF-kB reporter (A549-Dual [1]; 10 µM, irradiation: 8 Gy/4 fr): 0.915 | NF-kB reporter (A549-Dual [1]; 10 µM, irradiation: none): 0.823 | ISRE reporter (A549-Dual [2]; 10 µM, irradiation: 8 Gy/4 fr): 1.09 | ISRE reporter (A549-Dual [2]; 10 µM, irradiation: none): 0.888

CCNCC.O=S(=O)(O)c1cc(O)ccc1O [Ethamsylate]
NF-kB reporter (A549-Dual [1]; 10 µM, irradiation: 8 Gy/4 fr): 0.937 | NF-kB reporter (A549-Dual [1]; 10 µM, irradiation: none): 0.868 | ISRE reporter (A549-Dual [2]; 10 µM, irradiation: 8 Gy/4 fr): 0.811 | ISRE reporter (A549-Dual [2]; 10 µM, irradiation: none): 0.461

CC(=O)OC1CN2CCC1CC2.Cl (configuration not stated) [Aceclidine HCl]
NF-kB reporter (A549-Dual [1]; 10 µM, irradiation: 8 Gy/4 fr): 0.731 | NF-kB reporter (A549-Dual [1]; 10 µM, irradiation: none): 0.81 | ISRE reporter (A549-Dual [2]; 10 µM, irradiation: 8 Gy/4 fr): 0.617 | ISRE reporter (A549-Dual [2]; 10 µM, irradiation: none): 0.508

CC12C=CC(=O)C=C1CCC1C2CCC2(C)C1CCC2(C)O (configuration not stated) [Methandrostenolone]
NF-kB reporter (A549-Dual [1]; 10 µM, irradiation: 8 Gy/4 fr): 0.681 | NF-kB reporter (A549-Dual [1]; 10 µM, irradiation: none): 0.616 | ISRE reporter (A549-Dual [2]; 10 µM, irradiation: 8 Gy/4 fr): 0.713 | ISRE reporter (A549-Dual [2]; 10 µM, irradiation: none): 0.56

COc1ccc(C=O)cc1 [p-Anisaldehyde]
NF-kB reporter (A549-Dual [1]; 10 µM, irradiation: 8 Gy/4 fr): 0.781 | NF-kB reporter (A549-Dual [1]; 10 µM, irradiation: none): 0.83 | ISRE reporter (A549-Dual [2]; 10 µM, irradiation: 8 Gy/4 fr): 0.662 | ISRE reporter (A549-Dual [2]; 10 µM, irradiation: none): 0.537

O=[N+]([O-])OC1COC2C(O)COC12 (configuration not stated) [Isosorbide Mononitrate]
NF-kB reporter (A549-Dual [1]; 10 µM, irradiation: 8 Gy/4 fr): 0.919 | NF-kB reporter (A549-Dual [1]; 10 µM, irradiation: none): 0.866 | ISRE reporter (A549-Dual [2]; 10 µM, irradiation: 8 Gy/4 fr): 0.827 | ISRE reporter (A549-Dual [2]; 10 µM, irradiation: none): 1.02

O=c1[nH]c2ccccc2n1CCCN1CCC(n2c(=O)[nH]c3cc(Cl)ccc32)CC1 [Domperidone]
NF-kB reporter (A549-Dual [1]; 10 µM, irradiation: 8 Gy/4 fr): 1.1 | NF-kB reporter (A549-Dual [1]; 10 µM, irradiation: none): 0.984 | ISRE reporter (A549-Dual [2]; 10 µM, irradiation: 8 Gy/4 fr): 1.06 | ISRE reporter (A549-Dual [2]; 10 µM, irradiation: none): 1.17

CN(C)C1C(O)=C(C(N)=O)C(=O)C2(O)C(=O)C3=C(O)c4c(O)cccc4C(C)(O)C3C(O)C12 (configuration not stated) [Oxytetracycline (Terramycin)]
NF-kB reporter (A549-Dual [1]; 10 µM, irradiation: 8 Gy/4 fr): 0.579 | NF-kB reporter (A549-Dual [1]; 10 µM, irradiation: none): 1.19 | ISRE reporter (A549-Dual [2]; 10 µM, irradiation: 8 Gy/4 fr): 0.67 | ISRE reporter (A549-Dual [2]; 10 µM, irradiation: none): 0.977
